Source: PMC4336329 (PLoS ONE, 2015)
Screen size: about 310,000 compounds; about 14,000 (4.5%) showed an effect of 50% or more. Effects have a minus sign here. The list shows a part of the results.

biological target: human ether-à-go-go-related gene (hERG) potassium channel (human, UniProt Q12809); experiment: primary screen, population patch clamp on CHO cells stably expressing hERG
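Note: peak tail current of the secondary pulse compared with the same well before compound.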

Chain of human ether-à-go-go-related gene (hERG) potassium channel (Q12809 whole entry, looked up): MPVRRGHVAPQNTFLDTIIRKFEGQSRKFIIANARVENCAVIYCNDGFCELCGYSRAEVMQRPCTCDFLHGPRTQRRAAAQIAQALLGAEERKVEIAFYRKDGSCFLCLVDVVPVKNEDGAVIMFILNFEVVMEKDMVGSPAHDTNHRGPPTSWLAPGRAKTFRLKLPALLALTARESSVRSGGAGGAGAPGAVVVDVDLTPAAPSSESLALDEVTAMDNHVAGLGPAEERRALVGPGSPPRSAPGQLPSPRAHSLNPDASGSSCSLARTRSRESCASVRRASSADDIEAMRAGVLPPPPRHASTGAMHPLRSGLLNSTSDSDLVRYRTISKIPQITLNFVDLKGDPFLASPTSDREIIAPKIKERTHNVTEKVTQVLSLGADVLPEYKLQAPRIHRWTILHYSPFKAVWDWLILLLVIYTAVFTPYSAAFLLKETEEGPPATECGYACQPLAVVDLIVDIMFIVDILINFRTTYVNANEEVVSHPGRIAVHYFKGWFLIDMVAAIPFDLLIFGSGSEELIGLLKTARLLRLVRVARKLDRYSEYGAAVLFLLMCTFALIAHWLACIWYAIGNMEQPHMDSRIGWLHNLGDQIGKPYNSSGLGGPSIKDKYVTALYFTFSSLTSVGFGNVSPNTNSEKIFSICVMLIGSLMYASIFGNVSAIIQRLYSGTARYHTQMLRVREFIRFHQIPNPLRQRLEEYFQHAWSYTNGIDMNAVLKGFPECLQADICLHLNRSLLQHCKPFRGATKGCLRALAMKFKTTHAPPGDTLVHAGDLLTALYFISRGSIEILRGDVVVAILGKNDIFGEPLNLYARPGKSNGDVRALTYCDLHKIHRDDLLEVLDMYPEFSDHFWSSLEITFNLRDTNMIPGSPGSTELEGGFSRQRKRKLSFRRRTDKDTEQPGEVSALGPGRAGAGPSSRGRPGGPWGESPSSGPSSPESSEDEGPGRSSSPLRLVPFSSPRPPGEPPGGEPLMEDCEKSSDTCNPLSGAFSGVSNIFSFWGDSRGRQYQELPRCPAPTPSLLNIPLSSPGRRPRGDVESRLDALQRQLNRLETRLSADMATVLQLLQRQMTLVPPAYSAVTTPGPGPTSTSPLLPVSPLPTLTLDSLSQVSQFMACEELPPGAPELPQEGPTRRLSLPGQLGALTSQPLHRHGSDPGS

| SMILES | hERG current change (%, negative = inhibition) at 10uM [%] |
| --- | --- |
| Cc1c(Cl)cccc1NC(=O)COC(=O)C12CC3CC(CC(O)(C3)C1)C2 | 4.62 |
| CCOC(=O)Cc1cnc(NC(=O)NC(C(=O)OCC)(c2ccccc2)C(F)(F)F)s1 (stereo not drawn) | -7.81 |
| CC(C)CCNC(=O)c1cn(C)c2ccc(S(=O)(=O)N3CCCC3)cc2c1=O | 7.94 |
| Fc1cccc(/C=N/Nc2cc(N3CCOCC3)ncn2)c1 | 14.2 |
| COc1ccccc1-c1cnn2c(N3CCOCC3)cc(C)nc12 | 23.9 |
| O=C(N/N=C/c1ccc(OCc2ccccc2)cc1)c1cccs1 | 28.5 |
| COc1ccc(Cn2nnnc2CN(CCCN2CCOCC2)Cc2cc3cc(OC)ccc3[nH]c2=O)cc1 | -42.7 |
| CCN1C(=O)N[C@@H](c2cccc(C(F)(F)F)c2)C(C(C)=O)=C1C | -2.32 |
| COc1ccc(NC(=O)C2CCCN2S(=O)(=O)c2ccc3c(c2)CCC(=O)N3)cc1Cl (stereo not drawn) | -27.8 |
| Cc1cc(C)cc(OCc2nnc(SCC(=O)N3CCCCC3)o2)c1 | -1.74 |
| O=C(C(=O)N1CCc2ccccc2C1)c1cn(CC(=O)N2CCOCC2)c2ccccc12 | -19.1 |
| COc1ccc(Cl)cc1C(=O)Nc1cccc2ncccc12 | -6.04 |
| O=C(O)CC1(O)C(=O)N(Cc2ccccc2)c2ccccc21 (stereo not drawn) | 15 |
| Cc1occc1C(=O)NNC(=O)C1CCCC1 | -5.08 |
| C[C@H]1NC(=O)[C@@]2(C)[C@@H](c3ccccc3)[C@H]3COc4ccccc4[C@@H]3N2C1=O | -10.1 |
| Cc1cc(C)cc(OCC(=O)OCC(=O)N2CCc3ccccc32)c1 | 14.5 |
| Cc1cccc(-n2c(SCC(=O)c3c(N)n(C4CC4)c(=O)[nH]c3=O)nnc2N2CCOCC2)c1 | 0.839 |
| CCN(c1cccc(C)c1)S(=O)(=O)c1ccc(-c2coc(C)n2)cc1 | 4.01 |
| O=C(O)C(=O)O.c1ccc(Cn2c(SCCN3CCOCC3)nnc2-c2cccnc2)cc1 | -0.113 |
| O=C(OCC(=O)N1CCN(c2ccccc2)CC1)c1cnc(Cl)c(Cl)c1 | -38 |
| Cc1cc(=O)c(C(=O)O)cn1-c1ccc(C(C)C)cc1 | -20.4 |

| SMILES | hERG current change (%, negative = inhibition) at 10uM [%] |
| --- | --- |
| COc1ccc(S(=O)(=O)NC(Cc2ccccc2)C(=O)O)cc1 (stereo not drawn) | 10.4 |
| O=C(N=c1ccn(-c2nc3ccccc3nc2NS(=O)(=O)c2ccc(Cl)cc2)cc1)c1ccccc1Cl | 0.052 |
| CC(OC(=O)CNS(=O)(=O)c1ccc2ccccc2c1)C(=O)N(C)c1ccccc1 (stereo not drawn) | -15.6 |
| CCN(CC)CCn1c2ccccc2c2cnc(N=CN(C)C)c(C#N)c21 | -31.8 |
| COCCN1C(=O)N[C@@H](c2ccco2)C(C(=O)OC)=C1C | -8.51 |
| CCOC(=O)C(Cc1ccccc1)(NC(C)=O)C(=O)OCC | 7.61 |
| O=C(CNCCN1CCOCC1)Nc1ccccc1Sc1ccccc1.O=C(O)C(=O)O | -29.7 |
| CN(C)CCNC(=O)c1coc(=O)c(Br)c1 | 10.6 |
| NC(=O)c1ccccc1NC(=S)NC(=O)CCc1ccccc1 | 11.4 |
| CCN1CCN(CCCN(Cc2ccco2)C(=S)Nc2cccc(Cl)c2C)CC1 | -61.2 |
| CCCCOC(=O)CSc1nnc(-c2ccc(Cl)cc2Cl)o1 | 3.67 |
| CC(c1nc2ccccc2c(=O)[nH]1)N1CCCN(S(=O)(=O)c2ccc(F)cc2)CC1 (stereo not drawn) | -59.1 |
| Cc1ccccc1CS(=O)(=O)Cc1ccc(C(=O)NCCCN2CCCC2=O)o1 | 5.87 |
| CCOC(=O)c1c(NC(=O)Cn2ccsc2=N)sc(C)c1C.Cl | -10.9 |
| Cc1ccc(-c2nnnn2CS(=O)(=O)c2ccccc2)cc1 | -1.7 |
| Cc1cccn2c(=O)c3cc(C(=O)NCCN4CCOCC4)c(=N)n(CCN4CCOCC4)c3nc12 | 18.5 |
| CCCCNC(=O)N(CC)c1c(N)n(Cc2ccccc2)c(=O)[nH]c1=O | 18.1 |
| O=C1CC(c2cccc(Cl)c2)CC(O)=C1C=Nc1cccc(Cl)c1 (stereo not drawn) | -0.437 |
| O=C1c2cccc3cccc(c23)C(=O)N1c1cccnc1 | 10.9 |
| CC(C)C[C@H](NC(=O)NC1CCCc2ccccc21)C(=O)O (stereo partly drawn) | 16.2 |
| CCN(CC)CCCN1C(=O)C(=O)/C(=C(/O)c2cc(C)ccc2C)C1c1cccnc1 (stereo not drawn) | 2.4 |
